The RNAGym collection of RNA variant scans (doi:10.1093/nar/gkz1192)
The source gives no read counts; variants with many changes may rest on few reads.

B1: CPEB3 Ribozyme (parent)
chain: UAACAGGGGGCCACAGCAGAAGCGUUCACGUCGCAGCCCCUGUCAGAUUCUGGUGAAUCUGCGAAUUCUGCUGUAUAUCUC

Variants of: B1
Test: self-cleavage, relative activity (ratio to wild type); higher = more cleavage; in vitro, sequencing
Method in brief: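 For each CPEB3 ribozyme variant, relative activity is its cleaved/total read fraction divided by the unmutated ribozyme's. Barcoded error-prone PCR libraries were transcribed by T7 RNA polymerase (5 hours, 37°C) and held in DNase I for 15 min before an EDTA stop, with cleavage occurring throughout. Template-switching reverse transcription and Illumina sequencing were used to read the RNAs. A 5-read minimum applied, and results are the mean of three batches.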
With UAUCAGGGGGCCUCGGCAGAAGCGUUCACGUCGCAGCCCCUGUCAGAUACUGGUGAAUCUGCGAAUUCUGCUGUAUAUCUC [A3U A13U A15G U49A] the self-cleavage was 0.48.
With UAUCAGGGGGCCGCAGCAGAAGCGUUCACGUCGCAGCCCCUGUCAGAUUCAGUUGAAUCUGCGAAUUCUGCUGUAUAUCUC [A3U A13G U51A G53U] the self-cleavage was 1.12.
UAUCAGGGGGCCUCAGUAGAAGCGUUCACGUCGCAGCCCCUGUCAGAUUCUGGUGAAUCCGCGAAUACUGCUGUAUAUCUC [A3U A13U C17U U60C U67A] showed a self-cleavage of 0.17.
UAUCGGGGGGCCACAGCAGAAGCGUUCACGUCGCAGCCCCUGUCAGACCCUGGUGAAUCCGCGAAUUCUGCUGUAUAUCUC [A3U A5G U48C U49C U60C] showed a self-cleavage of 0.15.
UAUCAGGGGGCCUCAGCAGAAGCGUUCACGUCGCAGCCCCUGUCAGAUUCUGGUGAAUCCGCGAAUUGUGCUGUAUAUCUC [A3U A13U U60C C68G] showed a self-cleavage of 0.46.
UAUCAGGGGGCCUCAGCUGAAGCGUUCACGUCGCAGCCCCUGUCAGAUUCUGGUGGAUCCGCGAAUCCUGCUGUAUAACUC [A3U A13U A18U A56G U60C U67C U78A] showed a self-cleavage of 0.23.
UAUCAGGGGGCCGCAGCAGAAGCGUUCACGUCGCAGCCCCUGUCAGAUUCUGGUGUAUCUGCGAAUUCUGCUGUAUAUCUC [A3U A13G A56U] showed a self-cleavage of 0.58.
Variant UAUCAGGGGGCCACGGCAGUAGCGUUCACGUCGCAGCCCGUGUCAGAUUCUGGUGAAUCUGCGAAUUCUGCUGUAUAUCUC [A3U A15G A20U C40G] has a self-cleavage of 0.14.
UAUCAGGGGGCCACGGCAGGAGCGUUCACGUCGCAGCCCCCGUCAGAUUCUGGUGAAUCUGCGGAUUCUGCUGUAUAUCUC [A3U A15G A20G U41C A64G] gave a self-cleavage of 0.17.
Work on UAUCGGGGGGCCACAGCAGAAGCGCCCACGUCGCAGCCCCUGUCAGAUUCUGGUGAAUCUGCGAAUUCUGCUGUAUAUCUC [A3U A5G U25C U26C] yielded a self-cleavage of 0.47.
With UAUCUGGGGGCCACGGCAGAAGCGUUCACGUCGCAGCCCCCGUCAGAUUCUGGCGAAUCUGCGAGUUCUGCUGUAUAUCUU [A3U A5U A15G U41C U54C A65G C81U] the self-cleavage was 0.58.
In the case of UAUCAGGGGGCCUCAGCAGAAGCGUUCGCGUCGCAGCCCCUGUCAGAUUCUGGUGAAUCUGCGAAUUCUGCUGUAUAUAUC [A3U A13U A28G C79A], the self-cleavage is reported as 1.12.
For UAUCAGGGGGCCACGGCAGAAGCGAUCACGUCGCAGCCCCUGUCAGAUUCUGGUGAAUCUGCGAAUUCUGCUGUAUAUCUC [A3U A15G U25A], the self-cleavage was 0.29.
With UAUCAGGGGGCCUCGGCAGAAGCGUUCACGUCGCAGCCCCUGUCGGAUUCUGGCGGAUCUGCGAACUCUGCUGUAUAUCUC [A3U A13U A15G A45G U54C A56G U66C] the self-cleavage was 0.3.
In the case of UAUCUGGGGGCCACAGCAGAAGCGUUCACGUCGCAGCCCCUGUCAGAUUCAGGUGAAUCCGCGAAUUCUGCUGUAUAUCUC [A3U A5U U51A U60C], the self-cleavage is reported as 0.66.
For UAUCAGGGGGCCUCAGCAGAAGCGUUCACGUCACAGCCCCUGUCAGAUUCCGGUGAAUCUGUGAAUUCUGCUGUAUCUCUC [A3U A13U G33A U51C C62U A77C], the self-cleavage was 0.16.
In the case of UAUCGGGGGGCCACAGCAGAAGCGUUCACGACGCAGCCCCUGUCAGAUUCUGGUGAAUCUGCGAACUCUGCUGCAUAUCUC [A3U A5G U31A U66C U74C], the self-cleavage is reported as 0.37.
With UAUCAGGGGGCCACGGCAGAAGCGUUCACGUCGCAGCCCCUGUCAGAUUCUGGUGAAUCUGCAAACUCUGCGGUAUAUCUC [A3U A15G G63A U66C U72G] the self-cleavage was 0.42.
With UAUCAGGGGGCCACCGCAAAAGCGCUCACGUCGCAGCCCCUGUCAGAUCCUGGAGAAUCUGCGAAUUCAGCUGUAUAUCUC [A3U A15C G19A U25C U49C U54A U69A] the self-cleavage was 0.08.
For UAUCAGGGGGCCACGGCAGAAGCGUUCACGUCACAGCCCCCGUCAGAUUCUGGCGAAUCUGCGAAUUCUGCCGUAUAUCUC [A3U A15G G33A U41C U54C U72C], the self-cleavage was 0.43.
UAUCGGGGGGCCACAGCAGAAGUGUUCACGUCGCAGCCCCUGUCAGAUUCUGGUGAAUCUGCGAAUUCUACAGUAUACCCC [A3U A5G C23U G70A U72A U78C U80C] gave a self-cleavage of 0.04.
For UAUCAGGGGGCCGCAGCAGAAGCGUUCACGUCGCAGCCCCUGUCAGGUUCUGGUGAAUCUGCGAAUUCUGCUGUAUAUCUC [A3U A13G A47G], the self-cleavage was 0.94.
UAUCAGGGGGCCACCGCAGGAGCGUUCACGUCGCAGCCCCUGUCAGAUUCUGGUGAAUCUGCGGAUUCUGCUGUAUAUCUC [A3U A15C A20G A64G] showed a self-cleavage of 0.56.
UAUCUGGGAGCCACAGCAGAAGCGUUCACGUCGCAGCCCCUGUCAGAUUCUGGUGAAUCUGCGAAUUCUGCUCUAUAUCUC [A3U A5U G9A G73C] gave a self-cleavage of 0.66.
In the case of UAUCAGGGGGCCACGGCAGAAGCGUUCACGUCGCAGCGCCUGUCAGAUUCUGGUGAAUCUGCGAAUACUGCUGUAUAUCUC [A3U A15G C38G U67A], the self-cleavage is reported as 0.24.
For UAUCAGGGGGCCUCAGCAGAAGCGUUCACAUCGCUGCCCCUGUCAGAUUCUGGAGAAUCAGCGAAUUCUGAUGUAUAUCUC [A3U A13U G30A A35U U54A U60A C71A], the self-cleavage was 0.11.
In the case of UAUCAGGGGGCCACGGCAGAAGCGUUCACGUCGCAGCCCCUGUCAGGUUCAGGUGAAUCUGCGUAUUCUGCUGUAUAUCUC [A3U A15G A47G U51A A64U], the self-cleavage is reported as 0.3.
For UAUCGGGGGGCCACAGCAGAAGCGUUCACGUCGCAGCCCCUGUCAGAUUCUGGUGAAUCAGCGAAUUCCGCUGUAUAUCUC [A3U A5G U60A U69C], the self-cleavage was 0.44.
For UAUCGGGGGGCCACAGCAGAAGCGUUCACCUCGCAGCCCCCGUCAGACUCUGGUGGAUCUGCGAAUUCUGCUGUAUAUCUC [A3U A5G G30C U41C U48C A56G], the self-cleavage was 0.09.
In the case of UAUCUGGGGGCCACAGCUGAAGCGUCCACGUCGCAGCCCCUGUCAGAUUCUGGUGAAUCUGCGAAUUCUGCUGUAUAUCUC [A3U A5U A18U U26C], the self-cleavage is reported as 0.26.
For UAUCAGGGGGCCGCAGCAGUAACGUUCACGUCGCAGCUCCUGUCAGAUUCUGGUGAAUCUGCGAAUUCCGCUGUGUAUCUC [A3U A13G A20U G22A C38U U69C A75G], the self-cleavage was 0.
Variant UAUCUGGGGGCCACAGCAGAAGCGUUCACGUCGCAGCCCCUGUCAGAUUCUGGUGGAUCUGCGAAUUCUGCUGUAUAUCUC [A3U A5U A56G] has a self-cleavage of 0.98.
Variant UAUCAGGGGGCCGCAGCAGAAGCGUUCACGUCGCGGCCCCUGUCGGAUUCUGGUGAAUCUGCGAAUUCUGCUGUAUAUCGC [A3U A13G A35G A45G U80G] has a self-cleavage of 0.85.
UAUCAGGGGGCCACCGCAGAAGCGUUCACGUCGCAGCCCCUGUCAGACUCUGGUGAAUCUGCGAAUCCUGCUGUAUAUCUC [A3U A15C U48C U67C] showed a self-cleavage of 0.39.
